Results as given in US20240228495A1 (priority 2020, published 2024).

Tested on: Influenza A, strain PR8
Experiment: microbe, parasite or virus in culture
Settings: PR8, MDCK, read-out: Influenza Antiviral Activity by Cytopathic Effect (CPE) in MDCK Cells: EC50

Compound	EC50 [µM]
O=C1c2c(O)c(=O)nc(C3CCCN3C(=O)OCc3ccccc3)n2CCN1CCOc1ccccc1 (centres unmarked) [SRI-0030395, benzyl 2-(9-hydroxy-1,8-dioxo-2-(2-phenoxyethyl)-1,3,4,8-tetrahydro-2H-pyrazino[1,2-c]pyrimidin-6-yl)pyrrolidine-1-carboxylate]	> 50
O=C1c2c(O)c(=O)nc(C3CCCN3C(=O)c3c(Cl)cccc3Cl)n2CCN1CCOc1ccccc1 (centres unmarked) [SRI-0030396, 6-(1-(2,6-dichlorobenzoyl)pyrrolidin-2-yl)-9-hydroxy-2-(2-phenoxyethyl)-3,4-dihydro-2H-pyrazino[1,2-c]pyrimidine-1,8-dione]	> 50
O=C1c2c(O)c(=O)nc([C@@H]3CCCN3C(=O)c3c(Cl)cccc3Cl)n2CCN1CCS(=O)(=O)c1ccccn1 [SRI-0031013, (S)-6-(1-(2,6-dichlorobenzoyl)pyrrolidin-2-yl)-9-hydroxy-2-(2-(pyridin-2-ylsulfonyl)ethyl)-3,4-dihydro-2H-pyrazino[1,2-c]pyrimidine-1,8-dione]	> 50
N#Cc1ccc(S(=O)(=O)CCN2CCn3c([C@@H]4CCCN4C(=O)CSc4ccccc4Cl)nc(=O)c(O)c3C2=O)cc1 [SRI-0031014, (S)-4-((2-(6-(1-(2-((2-chlorophenyl)thio)acetyl)pyrrolidin-2-yl)-9-hydroxy-1,8-dioxo-1,3,4,8-tetrahydro-2H-pyrazino[1,2-c]pyrimidin-2-yl)ethyl)sulfonyl)benzonitrile]	> 50
N#Cc1ccc(S(=O)(=O)CCN2CCn3c([C@@H]4CCCN4C(=O)c4c(Cl)cccc4Cl)nc(=O)c(O)c3C2=O)cc1 [SRI-0031015, (S)-4-((2-(6-(1-(2,6-dichlorobenzoyl)pyrrolidin-2-yl)-9-hydroxy-1,8-dioxo-1,3,4,8-tetrahydro-2H-pyrazino[1,2-c]pyrimidin-2-yl)ethyl)sulfonyl)benzonitrile]	> 40
COc1ccc(S(=O)(=O)CCN2CCn3c([C@@H]4CCCN4C(=O)c4c(Cl)cccc4Cl)nc(=O)c(O)c3C2=O)cc1 [SRI-0031016, (S)-6-(1-(2,6-dichlorobenzoyl)pyrrolidin-2-yl)-9-hydroxy-2-(2-((4-methoxyphenyl)sulfonyl)ethyl)-3,4-dihydro-2H-pyrazino[1,2-c]pyrimidine-1,8-dione]	> 40
COc1ccc(S(=O)(=O)CCN2CCn3c([C@@H]4CCCN4C(=O)CSc4ccccc4Cl)nc(=O)c(O)c3C2=O)cc1 [SRI-0031020, (S)-6-(1-(2-((2-chlorophenyl)thio)acetyl)pyrrolidin-2-yl)-9-hydroxy-2-(2-((4-methoxyphenyl)sulfonyl)ethyl)-3,4-dihydro-2H-pyrazino[1,2-c]pyrimidine-1,8-dione]	39.3
O=C1c2c(O)c(=O)nc([C@@H]3CCCN3C(=O)CSc3ccccc3Cl)n2CCN1CCS(=O)(=O)c1cccnc1 [SRI-0031021, (S)-6-(1-(2-((2-chlorophenyl)thio)acetyl)pyrrolidin-2-yl)-9-hydroxy-2-(2-(pyridin-3-ylsulfonyl)ethyl)-3,4-dihydro-2H-pyrazino[1,2-c]pyrimidine-1,8-dione]	> 40
N#Cc1cccc(S(=O)(=O)CCN2CCn3c([C@@H]4CCCN4C(=O)CSc4ccccc4Cl)nc(=O)c(O)c3C2=O)c1 [SRI-0031022, (S)-3-((2-(6-(1-(2-((2-chlorophenyl)thio)acetyl)pyrrolidin-2-yl)-9-hydroxy-1,8-dioxo-1,3,4,8-tetrahydro-2H-pyrazino[1,2-c]pyrimidin-2-yl)ethyl)sulfonyl)benzonitrile]	> 40
O=C1c2c(O)c(=O)nc([C@@H]3CCCN3C(=O)CSc3ccccc3Cl)n2CCN1CCS(=O)(=O)c1cccs1 [SRI-0031024, (S)-6-(1-(2-((2-chlorophenyl)thio)acetyl)pyrrolidin-2-yl)-9-hydroxy-2-(2-(thiophen-2-ylsulfonyl)ethyl)-3,4-dihydro-2H-pyrazino[1,2-c]pyrimidine-1,8-dione]	> 40
O=C1c2c(O)c(=O)nc([C@@H]3CCCN3C(=O)CSc3ccccc3Cl)n2CCN1CCS(=O)(=O)c1ccncc1 [SRI-0031029, (S)-6-(1-(2-((2-chlorophenyl)thio)acetyl)pyrrolidin-2-yl)-9-hydroxy-2-(2-(pyridin-4-ylsulfonyl)ethyl)-3,4-dihydro-2H-pyrazino[1,2-c]pyrimidine-1,8-dione]	> 40
